SMILES strings stand for the structures. About 540 (0.36%) of roughly 150,000 compounds showed an effect of 50% or more. The list shows a part of the results.

In this assay the test system is Plasmodium falciparum. The experiment in a line: Primary screen in NF54 nanoGlo assay, in single point, at 2uM, 72h; a lower Z score goes with more inhibition. In kind it is functional, Erythrocyte. The settings on record: timepoint 72 hour.
With `O=C1C[C@H](c2nc3cc(Cl)ccc3o2)CN1c1ccccc1`, the % Inhibition (commonly the relative decrease from the control value, in per cent) worked out at 12% and the Z score was -1.74.

Take `CC[C@H](O)C(=O)N1CCC2(CCC(=O)N(C3CCOCC3)C2)CC1`: the “% Inhibition” value is recorded as 1% and the Z score is listed as -0.19.

As to `Cc1c(C(=O)N2CCC[C@H]2C(=O)N2CCCCC2)[nH]c2c(F)cccc12`, the “% Inhibition” value is -3% and the Z score is 0.6.

Regarding `Cc1ccc(S(=O)(=O)N2CC[C@H](CO)[C@H](NC(=O)c3cccnc3)C2)cc1`, the “% Inhibition” value was -10% and the Z score was found to be 1.29.

`COc1ccc(-c2nc(NCc3ccccc3CN3CCCCC3)[nH]c(=O)c2C#N)cc1`: the “% Inhibition” value was -1% and the Z score came out at 0.24.

Consider `c1cnc2nc(N3CCOCC3)ccc2c1`, for which the “% Inhibition” value is -7% and the Z score was determined as 0.79.

`CCCO[C@H]1CCCN(c2cc(CCN)nc(C)n2)C1`: the “% Inhibition” value was -1% and the Z score was determined as 0.12.

In the case of `COc1ccc(N2CCN(C(=O)c3c(C4CC4)n(Cc4cccs4)c(C)cc3=O)CC2)cc1`, the “% Inhibition” value was 11% and the Z score is recorded as -1.49.

Turning to `O=C(O)C[C@@H]1CCN(C(=O)c2ccccc2)C[C@@H]1CC1=NCCc2cc(F)ccc21`, the “% Inhibition” value is reported as 12% and the Z score is on record as -1.38.

Regarding `COc1ccccc1N(Cc1nnnn1C1CC1)S(=O)(=O)c1ccc(F)cc1`, the “% Inhibition” value is -9% and the Z score was determined as 1.73.

`Cc1nc(C(C)C)sc1C(=O)N1Cc2ccccc2C1`: the “% Inhibition” value is listed as -17% and the Z score stood at 2.41.

As for `O=C(Nc1ccccc1)c1ccc(N2C(=O)CCS2(=O)=O)cc1Cl`, the “% Inhibition” value is reported as -7% and the Z score was 0.85.

For `O=C(C1CC2CCC1O2)N(Cc1ccco1)c1cccc(F)c1` (stereo unspecified), the “% Inhibition” value is reported as -6% and the Z score was found to be 1.19.

In the case of `CC1=NS(=O)(=O)N(CCc2ccccc2)C=C1C(=O)NCCc1ccc(S(N)(=O)=O)cc1`, the “% Inhibition” value is on record as -15% and the Z score amounted to 2.93.

Consider `O=C1[C@@H]2CC[C@@H](c3ccccc3)N2C(=O)N1c1ccc(-n2cccn2)nc1`, for which the “% Inhibition” value is -2% and the Z score is 0.18.

`COC(=O)c1ccc(NC(=O)C(C)(C)NC(=O)C(F)(F)F)cn1`: the “% Inhibition” value is listed as 1% and the Z score is reported as -0.09.

In the case of `O=C(c1nn(-c2ccccn2)c2nccc(-c3cccs3)c12)N1CCCC1`, the “% Inhibition” value was -7% and the Z score stood at 0.92.

In the case of `CN(Cc1ccccn1)C(=O)[C@H]1CCN(Cc2ccccc2)C1`, the “% Inhibition” value is reported as 11% and the Z score is reported as -1.29.

`CN(C(=O)Nc1nnc(C2CC2)s1)C1CC1`: the “% Inhibition” value amounted to 12% and the Z score is -1.58.

`N#Cc1ccc(S(=O)(=O)CCn2cnc3ccccc3c2=O)cc1`: the “% Inhibition” value is -19% and the Z score is 3.02.

With `CN(Cc1ccccc1)Cc1c(N)n(C)c(=O)[nH]c1=O`, the “% Inhibition” value is on record as -11% and the Z score worked out at 1.49.

As to `CO[C@H]1CCN(c2ccc(NC(=O)Nc3ccc4c(c3)OCO4)cc2)C1`, the “% Inhibition” value was -17% and the Z score is 2.24.

For the molecule `O=C(Nc1cccc(-c2ccc3c(c2)OCCO3)n1)[C@@H]1CCCO1`, the “% Inhibition” value is on record as -5% and the Z score was determined as 0.97.

Turning to `O=C(c1ccc2noc(-c3ccc(Cl)cc3)c2c1)N1CCN(Cc2ccccc2)CC1`, the “% Inhibition” value is given as 8% and the Z score is -1.17.

`O=C(O)CCc1cc2n(n1)CCCN(Cc1ccc3[nH]ccc3c1)C2`: the “% Inhibition” value is -15% and the Z score is 1.85.

Take `CCOc1ccc(NC(=O)[C@H]2CCOC2)cc1`: the “% Inhibition” value is -17% and the Z score turned out to be 2.36.

On to `COc1cc(NC(=O)N2CCC[C@@H]2CN2CCCC2)ncn1`, for which the “% Inhibition” value is on record as -13% and the Z score turned out to be 1.65.

For the molecule `CN(C)C1(CNc2nc3c(c(=O)[nH]2)Cc2ccccc2OC3)CCOCC1`, the “% Inhibition” value was -10% and the Z score is given as 1.78.

As to `NCCOc1ccc(CC(=O)N[C@@H]2COC3(CCCCC3)C2)cc1`, the “% Inhibition” value is on record as 1% and the Z score is -0.11.

Turning to `Cc1cnc(-n2ncc(C(=O)N3CC[C@H](N(C)C)C3)c2C(C)C)nc1-c1ccc(F)cc1`, the “% Inhibition” value worked out at 12% and the Z score is -1.57.

As for `O=C([C@H]1CCOC1)N1CCC(Oc2ccc(F)cc2)CC1`, the “% Inhibition” value is recorded as -6% and the Z score is on record as 1.11.

Take `CCCCn1nccc1NC(=O)N1CCC2(CC1)C(=O)N(C)c1ccccc12`: the “% Inhibition” value was -4% and the Z score came out at 0.67.

Consider `CC1CC1C(NS(=O)(=O)c1cnnn1C)c1ccc(Cl)cc1` (stereo unspecified), for which the “% Inhibition” value is recorded as -9% and the Z score is reported as 1.03.

On to `CC(C)CNC(=O)[C@@H]1COC2(CCN(C(=O)c3ccc(Cl)c(Cl)c3)CC2)N1C(=O)c1ccco1`, for which the “% Inhibition” value came out at 2% and the Z score is reported as -0.27.

Consider `Cc1ccc(CCC(=O)NC[C@H]2CCC[C@@H]2O)s1`, for which the “% Inhibition” value was -2% and the Z score came out at 0.28.

As for `COc1cc(Br)cc(NC(=O)N2CC[S+]([O-])CCC2C)c1` (stereo unspecified), the “% Inhibition” value is given as -11% and the Z score stood at 1.68.

On to `CCN(CCCCO)C(=O)NCc1ccc(C)c(C)c1`, for which the “% Inhibition” value was -9% and the Z score came out at 1.76.

As to `Cc1cc(O)c(C(C)C)cc1NC(=O)CCCc1nccs1`, the “% Inhibition” value is -8% and the Z score is reported as 1.35.

Turning to `CN1C[C@]2(CCCN(Cc3ccc(OCC(=O)c4ccccc4)cc3)C2)CCC1=O`, the “% Inhibition” value is -5% and the Z score came to 0.67.

For `Cc1cc(C)cc(NC(=O)Nc2ccnn2C[C@H]2CCOC2)c1`, the “% Inhibition” value was 14% and the Z score is recorded as -1.6.

Take `COc1ccc(N2CCN(Cc3nc(C(=O)NCC(C)C)co3)CC2)cc1`: the “% Inhibition” value was -2% and the Z score was 0.47.

With `CCn1cc(C(=O)NS(=O)(=O)Cc2ccc(Cl)c(F)c2)cn1`, the “% Inhibition” value was -8% and the Z score is listed as 1.02.

On to `Cc1ccc(Br)cc1NC(=O)N(C)C`, for which the “% Inhibition” value is given as -7% and the Z score stood at 1.22.

Take `COc1ccc(NC(=O)[C@H]2CC(=O)N(c3[nH]nc4cc(Br)ccc34)C2)cn1`: the “% Inhibition” value is -17% and the Z score stood at 1.79.

Turning to `C#Cc1cccc(N(Cc2ccco2)S(=O)(=O)C[C@H]2CCCO2)c1`, the “% Inhibition” value is recorded as 2% and the Z score was -0.24.

Consider `OC1(CCNc2ncnc3c2Cc2ccccc2OC3)CCCC1`, for which the “% Inhibition” value was found to be 6% and the Z score is -0.61.

Regarding `Cc1cc(S(=O)(=O)N2CCN(Cc3ccncc3)CC2)c(C)s1`, the “% Inhibition” value was 11% and the Z score is given as -1.44.

As to `CC(C)c1nn(C)cc1CN1CCCC2(C1)OCCO2`, the “% Inhibition” value is given as -8% and the Z score is 1.55.

As for `N#Cc1nc(-c2cccs2)oc1N1CCC[C@H](O)C1`, the “% Inhibition” value is -15% and the Z score is 2.08.

For `COc1cc2ccc1Oc1cccc(c1)CO[C@H]1CN(C(=O)c3ccncc3)C[C@@H]1NC(=O)CN(C1CC1)C(=O)CC2`, the “% Inhibition” value was -13% and the Z score came to 1.65.

For the molecule `CCCn1nc(-c2ccc(F)c(F)c2)nc1CCN`, the “% Inhibition” value was -3% and the Z score was found to be 0.42.

Consider `CCC[C@@H](C(=O)N1CCN(CC)CC1)n1c(Cc2c(Cl)cccc2Cl)nc2ccccc21`, for which the “% Inhibition” value is on record as -5% and the Z score is reported as 0.75.

With `C[C@H]1CNC(=O)CCN1C(=O)c1ccccc1-c1nccn1C`, the “% Inhibition” value is given as -8% and the Z score is reported as 1.16.

The values are drawn from ChEMBL document CHEMBL4888484, “Replenishing the malaria drug discovery pipeline: Screening and hit evaluation of the MMV Hit Generation Library 1 (HGL1) against asexual blood stage Plasmodium falciparum ,using a nano luciferase reporter read-out” (2022).
